This note sets out measurements from ChEMBL document CHEMBL4888484, “Replenishing the malaria drug discovery pipeline: Screening and hit evaluation of the MMV Hit Generation Library 1 (HGL1) against asexual blood stage Plasmodium falciparum ,using a nano luciferase reporter read-out” (2022).

Each structure is given as a SMILES string. The whole screen tested about 150,000 compounds, of which about 540 (0.36%) showed an effect of 50% or more. The list shows a part of the results.

This assay has as its system Plasmodium falciparum. The assay can be described thus: Primary screen in NF54 nanoGlo assay, in single point, at 2uM, 72h; a lower Z score goes with more inhibition. The assay is classed as functional, Erythrocyte. Particulars: timepoint 72 hour.
As for `O=C(Nc1nc(C2CC2)cs1)N1CC(c2ccccc2F)C1`, the “% Inhibition” value is recorded as -1% and the Z score is recorded as 0.09.
On the same counts, the results for `Cc1cc(C(=O)NCC2(c3ccccn3)CC2)no1` are -14% and 2.21.
`COC(=O)C1CCN2C(=O)N(c3ccc(OCC(C)C)nc3)C(=O)C2C1` (centres undefined): the “% Inhibition” value came to 1% and the Z score is given as -0.13.
Turning to `COCCn1cc(CC(=O)Nc2cccc(C)c2)c2cccnc21`, the “% Inhibition” value is reported as -16% and the Z score is given as 1.89.
On to `CCC(=O)N1CCCN(C(=O)c2cccc3cn[nH]c23)CC1`, for which the “% Inhibition” value was 0% and the Z score was -0.03.
On to `Cc1csc([C@@H](C)CNC(=O)N(C)Cc2ncnn2CC(F)F)n1`, for which the “% Inhibition” value is on record as 3% and the Z score was -0.49.
On the same counts, the results for `COC(=O)C[C@H](O)CCn1c(-c2ccc(F)cc2)c(-c2ccccc2)c(C(=O)Nc2ccccc2)c1C(C)C` are -21% and 2.42.
The corresponding values for `CC[C@H]1CN(c2ccccc2)CCN1C(=O)NCC1(C)COC1` are -5% and 0.54.
For `CC(=O)Nc1c(-c2ccc(C)cc2)c(C)nn1-c1ccc(C(=O)N2CCN(c3ccccc3)CC2)cc1`, the “% Inhibition” value was determined as 14% and the Z score is on record as -1.62.
For `Cc1sc(C(=O)N2CCC(O)CC2)cc1-c1ccc(F)cc1`, the “% Inhibition” value is -1% and the Z score is reported as 0.19.
`Nc1nc2c(s1)C[C@@H](NC(=O)Cn1ccccc1=O)CC2`: the “% Inhibition” value is listed as -14% and the Z score is 1.98.
In the case of `CC(C)OCCCNc1ncnc2c1OCCN2`, the “% Inhibition” value is recorded as -12% and the Z score came to 1.71.
With `CN1CCC(N(CCc2ccccc2)C(=O)c2c(Cl)cnn2C)CC1`, the “% Inhibition” value is recorded as -8% and the Z score is 1.02.
As for `O=C(Nc1cccnc1C(F)(F)F)c1cc2n(n1)CCCO2`, the “% Inhibition” value is -9% and the Z score is given as 1.31.
`CC(C)n1ccnc1C(=O)NCCOCC(F)(F)F`: the “% Inhibition” value is 12% and the Z score was -1.36.
The corresponding values for `CCS(=O)(=O)N1CC(=O)N(c2cc(OC)cc(OC)c2)[C@](C)(C(=O)NC2CCCCCCC2)C1` are -16% and 1.95.
In the case of `COc1nccc(N2CC[C@H](NC(=O)c3ccccn3)[C@@H](O)C2)c1C#N`, the “% Inhibition” value worked out at 7% and the Z score is reported as -0.95.
As to `CC(C)CC1=NN(c2nc(-c3ccccn3)cs2)[C@@](O)(C(F)(F)F)C1`, the “% Inhibition” value stood at 15% and the Z score is reported as -2.47.
For `COc1ccc(N(C)S(=O)(=O)CCCCC#N)cc1Cl`, the “% Inhibition” value was -4% and the Z score came out at 0.45.
In the case of `Cc1nn(C)c2nc(-c3ccncc3)nc(N[C@H]3C[C@@H]4CC[C@H]3C4)c12`, the “% Inhibition” value came out at 14% and the Z score is -2.77.
Take `O=C(NCC1CC1)[C@H]1CC(=O)N(CC2CCN(C(=O)C3CCOCC3)CC2)C1`: the “% Inhibition” value is given as -1% and the Z score was 0.11.
On to `COc1ccccc1CCC(=O)N1CCCCC[C@H]1c1nnc(C)o1`, for which the “% Inhibition” value was -8% and the Z score is given as 1.61.
On the same counts, the results for `O=C(Nc1ccnn1C1CCN(Cc2ccccn2)CC1)c1cccnc1` are 2% and -0.35.
For the compound `Cc1nn(C)cc1NC(=O)c1cnn(C(C)C)c1`, the “% Inhibition” value is -6% and the Z score is 0.83.
On the same counts, the results for `O=S(=O)(Nc1ccc(S(=O)(=O)N2CCCC2)cc1)c1ccc(F)cc1F` are -12% and 1.83.
With `O=C(COC(=O)CN1C(=O)c2ccccc2C1=O)NCCc1ccccc1`, the “% Inhibition” value is -2% and the Z score is listed as 0.26.
Turning to `Cc1cc2n(n1)CCN(C[C@@H]1[C@H]3CN(C(=O)c4c(C)noc4C)C[C@@H]13)C2`, the “% Inhibition” value was -4% and the Z score amounted to 0.71.
The corresponding values for `Cc1nnc(CN2CCN(c3nonc3C)CC2)s1` are -9% and 1.63.
On the same counts, the results for `CC(C)NC(=O)c1cn2c(n1)CC[C@H](c1ccc(Oc3ccccc3)cc1)C2` are 9% and -1.19.
Regarding `C[C@@H](CNC(=O)NC1CCCCC1)CN1CCCC1`, the “% Inhibition” value was -3% and the Z score was 0.43.
Take `Cc1ccnc(N(C(=O)c2ccc(F)cc2)C(=O)c2ccc(F)cc2)c1`: the “% Inhibition” value is reported as -13% and the Z score stood at 1.7.
Take `Cc1cccc2nc(C(=O)NCCc3ncnn3C)c(F)n12`: the “% Inhibition” value was -11% and the Z score is given as 1.56.
As for `Cc1noc(C)c1C[C@H](C)C(=O)Nc1nccc2ccncc12`, the “% Inhibition” value is -16% and the Z score was 2.53.
In the case of `COc1ccccc1OC1(C(=O)O)CCN(Cc2ccc(F)cc2F)CC1`, the “% Inhibition” value is listed as -4% and the Z score is 0.71.
Consider `CC[C@H](Nc1cccc(COCC(F)(F)C(F)F)c1)C(N)=O`, for which the “% Inhibition” value is -3% and the Z score turned out to be 0.44.
In the case of `COc1ncccc1C(=O)NCc1ccnc(-c2ccco2)c1`, the “% Inhibition” value worked out at 0% and the Z score came out at 0.02.
As to `Cn1c(=O)n([C@@H]2CCN(C(=O)c3ccsc3)C2)c2ncccc21`, the “% Inhibition” value was -8% and the Z score came out at 1.38.
As for `Cc1cnc(C)c(N2C[C@H]3CC[C@@H](C2)N(CC2CC2)C3)n1`, the “% Inhibition” value worked out at 1% and the Z score is given as -0.18.
`NCCN1C(=O)CC[C@@H]2CN(c3ccc(-c4ccccc4)nn3)CC[C@@H]21`: the “% Inhibition” value is given as -18% and the Z score came out at 1.82.
On the same counts, the results for `CN(CCCn1cccn1)C(=O)c1csc(N)n1` are -6% and 1.01.
The corresponding values for `Cc1noc(CNS(=O)(=O)Cc2ccccc2)n1` are -3% and 0.47.
Regarding `O=C(N[C@@H](C1CCOCC1)C1(CO)CCC1)C1Cc2ccccc2C1`, the “% Inhibition” value stood at 3% and the Z score is -0.47.

Usually % Inhibition stands for the drop in the measured response relative to a control, in per cent.
